Laboratory results as given in US11939397B2, “ENTPD2 antibodies, combination therapies, and methods of using the antibodies and combination therapies” (Novartis AG, priority 2018, dated 2024).
Residue numbers refer to the chain shown, from its start.

Tests used:
[1] = target: T1, human ENTPD2 (Homo sapiens, UniProt Q9Y5L3); assay: Biacore SPR affinity to human ENTPD2 ECD; type: binding; settings: 25° C.
T1 construct: residues 29-462 of human or cyno ENTPD2 were cloned into expression vector; GP67 signal peptide (N); made in house; host or cells: High Five (Trichoplusia ni) insect cells, baculovirus
T1 sequence (Q9Y5L3 29-462): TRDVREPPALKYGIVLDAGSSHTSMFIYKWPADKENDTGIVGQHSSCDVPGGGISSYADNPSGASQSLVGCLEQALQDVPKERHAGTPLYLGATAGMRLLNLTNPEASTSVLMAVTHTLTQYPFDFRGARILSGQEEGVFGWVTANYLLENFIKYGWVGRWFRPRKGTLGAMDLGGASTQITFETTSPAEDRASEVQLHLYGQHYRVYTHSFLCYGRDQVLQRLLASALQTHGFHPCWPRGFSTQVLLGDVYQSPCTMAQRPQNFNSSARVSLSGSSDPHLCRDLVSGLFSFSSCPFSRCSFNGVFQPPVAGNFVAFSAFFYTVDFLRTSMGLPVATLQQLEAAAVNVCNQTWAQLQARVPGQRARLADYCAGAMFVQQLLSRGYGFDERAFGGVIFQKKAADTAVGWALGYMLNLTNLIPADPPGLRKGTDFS
Procedure: (§1) Biacore™ Screening: Affinity was measured by determining the kinetic rate constants using surface plasmon resonance (SPR) on a Biacore™ T200 or T100 with the T200 sensitivity upgrade instrument (Biacore™, GE Healthcare). Antibodies were captured on CM5 sensor chips (Biacore™, GE Healthcare) prepared with a mouse anti-human IgG Fc antibody (ThermoFisher catalogue #05-4200) amine coupled to the surface. […] ENTPD2 analytes were allowed to associate for 180 s and dissociate for up to 1800 s depending on the off-rate of the antibody at a flow rate of 30 μL/min. The running buffer was PBS pH 7.2 (prepared from a Corning 10× stock, cat #46-013-CM)+0.05% Tween 20. Regeneration was accomplished with 30 s injections of 3 or 4 M MgCl2 to remove all the captured antibody and remaining complex from the surface, after which fresh antibody was captured. The raw data were analyzed using Biacore™ T200 Evaluation Software version 1.0 and fit to a 1:1 binding model, with all parameters set to fit globally except for RI, which was set to fit locally.

[2] = tested on: cynomologus (cyno) ENTPD2; assay: Biacore SPR affinity to cyno ENTPD2 ECD; type: binding, cynomolgus monkey; settings: 25° C.
Procedure: as §1

[3] = target: T2, mouse ENTPD2 (Mus musculus, UniProt O55026); assay: Antibody specificity: binding to mouse ENTPD2; settings: SPR, mouse ENTPD2
T2 construct: residues 29-462 of mouse or rat ENTPD2 (the extracellular domain); mouse IgK signal peptide (N); made in house; host or cells: FreeStyle 293-F cells, transient
T2 sequence (O55026 29-462): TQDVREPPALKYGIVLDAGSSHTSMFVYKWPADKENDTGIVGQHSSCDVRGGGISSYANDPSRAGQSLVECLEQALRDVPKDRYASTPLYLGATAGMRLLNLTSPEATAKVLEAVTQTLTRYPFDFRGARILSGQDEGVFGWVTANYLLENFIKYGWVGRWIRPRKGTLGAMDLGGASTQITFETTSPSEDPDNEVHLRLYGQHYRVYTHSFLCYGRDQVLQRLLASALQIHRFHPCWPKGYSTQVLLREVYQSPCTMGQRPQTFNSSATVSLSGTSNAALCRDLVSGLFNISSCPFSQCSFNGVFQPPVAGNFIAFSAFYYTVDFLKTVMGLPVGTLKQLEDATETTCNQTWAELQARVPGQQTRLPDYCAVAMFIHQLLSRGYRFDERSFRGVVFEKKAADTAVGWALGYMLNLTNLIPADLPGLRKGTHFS
Procedure: FACS screening: Specific binding of candidate antibodies to endogenously expressed ENTPD2 was assessed by flow cytometry. Cells were rinsed thoroughly with 1×PBS and treated with Accutase (Millipore #SCR005) to lift from growth plates and resuspended at approximately 1×10^5 cells/90 μL in 1×FACS buffer (2% FBS+0.1% NaN3 in PBS). In a 96-well U-bottom plate, 10 μL of 10× antibody solution in FACS buffer was pre-seeded and 90 μL of cell suspension was added. Cell were incubated for 30 minutes at 4° C., washed 1× with cold PBS and resuspended in 100 μL of 1:500 secondary antibody 1×FACS buffer (Allophycocyanin conjugated F(ab′)2 goat anti-human IgG, Fcγ specific; Jackson Immunoresearch, Cat #109-136-098). After additional incubation for 15 min at 4° C., cells were washed twice with PBS and resuspended in 100 μL of 1×FACS buffer with 4 μg/mL propidium iodide (Life Technologies, Cat #P3566). Geometric mean fluorescence intensity was calculated on live single cells using FlowJo software.
ELISA screening on directly coated antigen: Maxisorp™ 384-well plates (Thermo Nunc) were coated with 2 μg/ml of recombinant ENTPD2 diluted in PBS. After blocking with 2% BSA (bovine serum albumin) in PBS for 1 hr at room temperature, washing plates 3× with TBST (0.05% Tween 20 in TBS, Sigma Cat #T9039), primary antibodies in TBST and 2% BSA were added in a serial dilution and incubated for 1 hr at room temperature. Plates were washed again and bound antibodies were detected by incubation with anti-hFc gamma conjugated to horseradish peroxidase (HRP; Jackson ImmunoResearch, Cat #115-035-098, diluted 1:5000 in 1×TBST+2% BSA) for 1 hr at room temperature followed by washing with TBST and afterwards addition of SureBlue Peroxidase substrate (KPL, #52-00-03) substrate. After 15 min, absorbance at 650 nm was recorded and analyzed in GraphPad Prism6.
as §1
Antibody specificity for mAb1-mAb10 was confirmed. […] Antibodies mAb8, mAb9, and mAb10 show weak affinity to mouse ENTPD2. None of the selected antibodies bind to rat ENTPD2.

[4] = tested on: human ENTPD2 engineered B16LM3 clone B5 tumor; assay: Human ENTPD2 engineered B16LM3 clone B5 xenograft model, combination with anti-PD-1 Ab; type: in vivo, C57BL/6 mice; settings: for anti-tumor efficacy as single agents: i.v. on day 1, single agent
From the text: This model was derived from the B16LM3 melanoma model, where endogenous mouse ENTPD2 expression was knocked out via a transient electroporation of CAS9 protein with CRISPR guide RNA sequences against mouse ENTPD2, and human ENTPD2 was overexpressed using a retroviral transduction approach.
Once tumors reached approximately 35-50 mm^3, mice were randomized according to tumor volume into treatment groups (n=8 per group). […] All doses were adjusted to individual mouse body weights.

[5] = target: T3, recombinant human ENTPD2 (residues 29-462) (Homo sapiens, UniProt Q9Y5L3); assay: Biochemical human ENTPD2 functional assay (Transcreener ADP2 TR-FRET); settings: FIG. 15
T3 construct: residues 29-462 of human or cyno ENTPD2 were cloned into expression vector; GP67 signal peptide (N); made in house; host or cells: High Five (Trichoplusia ni) insect cells, baculovirus
T3 sequence (Q9Y5L3 29-462): T1 sequence (Q9Y5L3 29-462)

[6] = 0.1 mg/kg i.v. day 1, in combination with anti-PD-1 Ab (fixed dose of 10 mg/kg), Day 7
[7] = 1 mg/kg i.v. day 1, in combination with anti-PD-1 Ab (fixed dose of 10 mg/kg), Day 7
[8] = 10 mg/kg i.v. day 1, in combination with anti-PD-1 Ab (fixed dose of 10 mg/kg), Day 7

B1: mAb1: anti-human ENTPD2 antibody generated by humanization of mAb17 (antibody)
heavy: EVQLVQSGAEVKKPGESLKISCKASGYTFTDYNMDWVRQMPGKGLEWMGDINPKYDISTYNQQFKGQVTISADKSIRTAYLQWSSLKASDTAMYYCARRGFFLYYGINYYYFDVWGQGTLVTVSSASTKGPSVFPLAPSSKSTSGGTAALGCLVKDYFPEPVTVSWNSGALTSGVHTFPAVLQSSGLYSLSSVVTVPSSSLGTQTYICNVNHKPSNTKVDKRV[human IgG1 Fc skipped]
light: DIQLTQSPSSLSASVGDRVTITCSASSSVSYIHWFQQKPGKAPKLLIYSTSNLASGVPSRFSGSGSGTFFTLTISSLQPEDFATYFCHQWSSYPWTFGQGTKVEIKRTVAAPSVFIFPPSDEQLKSGTASVVCLLNNFYPREAKVQWKVDNALQSGNSQESVTEQDSKDSTYSLSSTLTLSKADYEKHKVYACEVTHQGLSSPVTKSFNRGEC
- Human ENTPD2 ka [1]: 110000 M⁻¹ s⁻¹
- Human ENTPD2 kd [1]: 0.00019 s⁻¹
- Cyno ENTPD2 ka [2]: 360000 M⁻¹ s⁻¹
- Cyno ENTPD2 kd [2]: 0.0012 s⁻¹
- Mouse ENTPD2 BIACore KD [3]: No binding
- ΔT/ΔC value [4, 6]: 33.4%
- ΔT/ΔC value [4, 7]: 35.7%
- ΔT/ΔC value [4, 8]: 18.4%
- anti-tumor efficacy as single agents [4]: No significant anti-tumor efficacy
- inhibition of the catalytic activity of the recombinant human ENTPD2 [5]: potently inhibit

B2: mAb19: anti-human ENTPD2 antibody disclosed in Table 1 (antibody)
heavy: EVQLQQFGAELVKPGTSVKISCKASGYTFTDYNMDWVKQSHGKSLEWIGDINPNYDITTYNQRFKGKATLTVDKSSSTAYMELRSLTSEDTAVYYCARRGFFPYYGNSYYYFDVWGAGTTVTVSSASTKGPSVFPLAPSSKSTSGGTAALGCLVKDYFPEPVTVSWNSGALTSGVHTFPAVLQSSGLYSLSSVVTVPSSSLGTQTYICNVNHKPSNTKVDKRV[human IgG1 Fc skipped]
light: QIVLTQSPTIMSASLGEEITLTCSASSSVSYMHWYQQKSGTSPKLLIYSTSNLASGVPSRFSGSGSGTFYSLTISSVEAEDAADYYCHQWSNYPWTFGGGTKLEIKRTVAAPSVFIFPPSDEQLKSGTASVVCLLNNFYPREAKVQWKVDNALQSGNSQESVTEQDSKDSTYSLSSTLTLSKADYEKHKVYACEVTHQGLSSPVTKSFNRGEC
- inhibition of the catalytic activity of the recombinant human ENTPD2 [5]: potently inhibit

B3: mAb21: anti-human ENTPD2 antibody disclosed in Table 1 (antibody)
heavy: EVQLQQSGPELVKPGASVKISCKTSGYTFTEYTMHWVKQSHGKSLEWIGGINPNNGITTYNQKFKGKATLTVDKSSSTAYMDLRSLTSEGSAVYYCARRGFPIYYYGTSLYYFDYWGQGTTLTVSSASTKGPSVFPLAPSSKSTSGGTAALGCLVKDYFPEPVTVSWNSGALTSGVHTFPAVLQSSGLYSLSSVVTVPSSSLGTQTYICNVNHKPSNTKVDKRV[human IgG1 Fc skipped]
light: B2 light with T9A, K38R, S49T, N92S
- inhibition of the catalytic activity of the recombinant human ENTPD2 [5]: potently inhibit

B4: mAb6: anti-human ENTPD2 antibody generated by humanization and optimization of mAb16 (antibody)
heavy: QVQLQESGPGLVKPSQTLSLTCTVSGYSITSGYYWNWIRQHPGKGLEWMGYISYDADNNYNPSLKNRITISRDTSKNQFSLKLSSVTAADTAVYYCAGGYYRYGLGSYSGSYYYVMDYWGQGTTVTVSSASTKGPSVFPLAPSSKSTSGGTAALGCLVKDYFPEPVTVSWNSGALTSGVHTFPAVLQSSGLYSLSSVVTVPSSSLGTQTYICNVNHKPSNTKVDKRV[human IgG1 Fc skipped]
light: DTQMTQSPSSLSVSVGDRATITCKASQSVDYEGHSYMNWYQQKPGKAPKLLIYAASNLESGVPSRFSGSGSGTDFTLTISSVQPEDFATYYCQQSNEDPPTFGGGTKLEIKRTVAAPSVFIFPPSDEQLKSGTASVVCLLNNFYPREAKVQWKVDNALQSGNSQESVTEQDSKDSTYSLSSTLTLSKADYEKHKVYACEVTHQGLSSPVTKSFNRGEC
- Human ENTPD2 ka [1]: 350000 M⁻¹ s⁻¹
- Human ENTPD2 kd [1]: 0.00026 s⁻¹
- Cyno ENTPD2 ka [2]: 290000 M⁻¹ s⁻¹
- Cyno ENTPD2 kd [2]: 0.01 s⁻¹
- Mouse ENTPD2 BIACore KD [3]: No binding
- ΔT/ΔC value [4, 6]: 41.0%
- ΔT/ΔC value [4, 7]: 27.3%
- ΔT/ΔC value [4, 8]: 29.2%
- Tumor Response ΔT/ΔC ([4]; Day 7, mAb 10 mg/kg dosed D 1, single agent, no anti-PD-1 Ab): 60.0%
- anti-tumor efficacy as single agents [4]: No significant anti-tumor efficacy
- Host Response Δ body weight ([4]; mAb 10 mg/kg dosed D 1, single agent, no anti-PD-1 Ab): −0.1%

B5: mAb3: anti-human ENTPD2 antibody generated by humanization of mAb17 (antibody)
heavy: QVQLVQSGAEVVKPGASVKISCKASGYTFTDYNMDWVKQAPGQRLEWIGDINPKYDISTYNQQFKGKATITVDTSASTAYMELSSLRSEDTAVYYCARRGFFLYYGINYYYFDVWGQGTLVTVSSASTKGPSVFPLAPSSKSTSGGTAALGCLVKDYFPEPVTVSWNSGALTSGVHTFPAVLQSSGLYSLSSVVTVPSSSLGTQTYICNVNHKPSNTKVDKRV[human IgG1 Fc skipped]
light: EIVLTQSPATLSASPGERITLSCSASSSVSYIHWYQQKPGQAPRLLIYSTSNLASGIPARFSGSGSGTFYTLTISSVEPEDAAVYYCHQWSSYPWTFGGGTKLEIKRTVAAPSVFIFPPSDEQLKSGTASVVCLLNNFYPREAKVQWKVDNALQSGNSQESVTEQDSKDSTYSLSSTLTLSKADYEKHKVYACEVTHQGLSSPVTKSFNRGEC
- Human ENTPD2 ka [1]: 130000 M⁻¹ s⁻¹
- Human ENTPD2 kd [1]: 0.00016 s⁻¹
- Cyno ENTPD2 ka [2]: 450000 M⁻¹ s⁻¹
- Cyno ENTPD2 kd [2]: 0.00098 s⁻¹
- Mouse ENTPD2 BIACore KD [3]: No binding
